# Paper PMC4336329 (PLoS ONE, 2015)
# The campaign covered roughly 310,000 compounds. About 2,200 (0.71%) showed an effect of 50% or more. Effects have a minus sign here. The list shows a part of the results.
# Molecular target: human ether-à-go-go-related gene (hERG) potassium channel (human, UniProt Q12809)
# Assay: primary screen, population patch clamp on CHO cells stably expressing hERG
# Sequence of human ether-à-go-go-related gene (hERG) potassium channel (Q12809 whole entry, looked up): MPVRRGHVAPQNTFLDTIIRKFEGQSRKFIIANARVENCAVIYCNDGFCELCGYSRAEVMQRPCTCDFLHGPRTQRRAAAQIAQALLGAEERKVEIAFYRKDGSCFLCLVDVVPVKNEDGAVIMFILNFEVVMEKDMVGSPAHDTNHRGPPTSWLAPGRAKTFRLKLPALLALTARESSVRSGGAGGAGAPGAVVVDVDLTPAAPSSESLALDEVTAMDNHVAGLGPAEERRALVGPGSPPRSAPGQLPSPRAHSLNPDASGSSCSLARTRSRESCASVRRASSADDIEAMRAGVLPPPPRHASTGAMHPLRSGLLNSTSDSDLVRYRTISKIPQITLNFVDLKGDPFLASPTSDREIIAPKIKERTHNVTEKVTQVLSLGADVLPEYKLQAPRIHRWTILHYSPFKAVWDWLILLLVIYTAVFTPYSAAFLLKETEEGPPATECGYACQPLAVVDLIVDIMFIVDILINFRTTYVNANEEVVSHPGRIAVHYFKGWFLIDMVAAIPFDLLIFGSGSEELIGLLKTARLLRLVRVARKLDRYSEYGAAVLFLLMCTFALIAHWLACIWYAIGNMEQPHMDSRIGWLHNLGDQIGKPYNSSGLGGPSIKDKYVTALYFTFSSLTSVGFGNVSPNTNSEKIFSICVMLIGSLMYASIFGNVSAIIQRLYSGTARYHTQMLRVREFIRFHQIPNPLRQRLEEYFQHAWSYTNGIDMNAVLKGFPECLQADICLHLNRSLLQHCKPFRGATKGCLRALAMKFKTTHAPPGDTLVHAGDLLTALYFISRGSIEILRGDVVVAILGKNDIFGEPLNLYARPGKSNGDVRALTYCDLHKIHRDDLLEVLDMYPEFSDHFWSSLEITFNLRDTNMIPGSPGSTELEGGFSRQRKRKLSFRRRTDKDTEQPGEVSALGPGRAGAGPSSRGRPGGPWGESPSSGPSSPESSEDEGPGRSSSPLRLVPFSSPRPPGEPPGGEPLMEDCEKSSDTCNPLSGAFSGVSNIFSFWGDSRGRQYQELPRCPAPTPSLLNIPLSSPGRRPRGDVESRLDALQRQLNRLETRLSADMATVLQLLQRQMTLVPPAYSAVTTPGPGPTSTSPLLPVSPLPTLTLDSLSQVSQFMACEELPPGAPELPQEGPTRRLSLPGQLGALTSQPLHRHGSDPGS
row,SMILES,"hERG current change (%, negative = inhibition) at 1uM"
1,O=C(NCc1ccco1)c1c(F)cccc1Cl,17.3%
2,O=C(Nc1ccc(NC(=S)NC(=O)c2ccccc2Cl)cc1)c1cccc(Cl)c1,13.9%
3,CC1CN(C(=O)c2cc3c(s2)CCC3)CC(C)O1 (stereo not shown),0.87%
4,Nc1nc2n(n1)C(c1cccc(Br)c1)CC(c1ccccc1)N2 (stereo not shown),-11.7%
5,O=C(O)C1CC(O)CN1c1nc(Cl)ccc1[N+](=O)[O-] (stereo not shown),3.79%
6,CC(C)CCOc1ccc(C2(C)NC(=O)NC2=O)cc1 (stereo not shown),3.62%
7,O=C(O)C(=O)O.O=C(c1ccccc1)c1ccc(OCC(O)CNCc2ccc(Cl)cc2)cc1 (stereo not shown),0.916%
8,COc1ccc(C(C)=O)cc1CC(C(=O)c1ccccc1)N(C)C.Cl (stereo not shown),1%
9,CC(=O)N1CCN(C(=S)c2ccc(N(C)C)cc2)CC1,7.9%
10,Cc1ccc(NC(=S)NNC(=O)c2nn(C)cc2Cl)cc1,2.59%
11,O=C1NC(c2cc3c(cc2Cl)OCO3)Oc2ccccc21 (stereo not shown),-1.94%
12,Cc1ccc2nc(SCc3nc4ccccc4c(=O)[nH]3)[nH]c2c1,9.36%
13,Cc1ccc(S(=O)(=O)N(C)C)cc1NC(=O)c1cc(=O)[nH]c2ccccc12,15.4%
14,CCc1nn(CCCC(=O)NCc2ccco2)c(=O)c2cc3occc3n12,-3.38%
15,Cc1cccc(N2CCN(CC(=O)Nc3ccc(-n4cnnn4)cc3)CC2)c1C,12.5%
16,COc1ccc(/C=N/NC(=O)c2nc(-c3ccccc3)cc(-c3ccccc3)n2)cc1OC,1.66%
17,COc1ccc(C(=O)CSc2nc3ncccc3[nH]2)cc1OC,13.6%
18,CC(C)(CNC(=O)c1ccc(S(=O)(=O)Nc2ccc(Cl)cc2)cc1)N1CCOCC1,-5.89%
19,COc1ccc(C(=O)NC(C)c2nc3ccccc3n2C)cc1OC (stereo not shown),-7.35%
20,O=C(OCC#CCSc1nc2ccccc2s1)c1ccco1,-2.51%
21,CCN(CC(=O)NCc1ccc(Cl)cc1)C(=O)CSc1ccc(Br)cc1,-48.6%
22,CS(=O)(=O)N1N=C(c2cccs2)CC1c1ccccc1F (stereo not shown),1.33%

row,SMILES,"hERG current change (%, negative = inhibition) at 1uM"
1,COc1ccc(-c2cc(C)no2)cc1S(=O)(=O)N(C)Cc1ccco1,14.3%
2,Cc1nn(CC(=O)NCc2ccc(Cl)cc2)c(C)c1[N+](=O)[O-],2.31%
3,CCCCn1nc2cc(C(=O)NCc3cc(C(F)(F)F)cc(C(F)(F)F)c3)ccc2c1OCC,15.8%
4,CSc1nnc(CCCCCNC(=O)OC(C)(C)C)o1,14.1%
5,O=C(N/C=C\c1ccccc1)NCc1ccc(Cl)cc1,10.6%
6,C/C(=N\NC(=O)C(c1ccccc1)c1ccccc1)c1ccc(O)cc1,10.1%
7,Cc1ccc(C(C2=C(O)CC(C)(C)CC2=O)C2C(=O)CC(C)(C)CC2=O)s1 (stereo not shown),8.25%
8,COc1ccc(CN2CCSCC2)cc1C,5.52%
9,O=C(CCCN1C(=O)S/C(=C\c2ccccc2)C1=O)NNC(=O)c1ccccc1O,12.6%
10,CCN(CC)CCn1c(NCc2ccccn2)nc2ccccc21.Cl,-1.1%
11,COc1ccccc1OCC(=O)NNc1c2ccccc2nc2ccccc12,12.8%
12,N#CCc1nn(-c2ccc(Cl)cc2)c(N)c1C#N,9.26%
13,CCOC(=O)c1[nH]c2cc(OC)c(OC)cc2c1NC(=O)CN1CCN(c2ccc(OC)cc2)C(C)C1 (stereo not shown),7.05%
14,COC(=O)CCC(=O)OC1(C)C(=O)C2=CN(c3ccccc3)C(c3ccc(OC)cc3)=CC2=C(Br)C1=O (stereo not shown),3.11%
15,O=C(CCNS(=O)(=O)c1cccs1)N1CCN(c2cccc(Cl)c2)CC1,-0.0599%
16,CC1(C)Cc2c(C#N)c(SCC(=O)O)nc(N3CCOCC3)c2CO1,17.9%
17,COc1ccc(CNC(=O)COc2cc3c(c4oc(=O)cc(C)c24)CCC(C)(C)O3)cc1,12.6%
18,COc1ccc(N2C(=O)CC(c3ccccc3)CC2=O)cc1,10.5%
19,COc1ccc(CCNC(=O)C2C3CCC(C3)C2C(=O)O)cc1OC (stereo not shown),14.5%
20,O=C(NCc1ccccc1)c1ccc2c(c1)OCCO2,5.28%
21,Cn1c(=O)c2c(nc(Oc3ccc(-c4ccccc4)cc3)n2C)n(C)c1=O,9.66%
22,CCCC(=O)NC(=S)Nc1cccc(NC(=O)c2ccccc2)c1,5.48%

row,SMILES,"hERG current change (%, negative = inhibition) at 1uM"
1,CC(=O)Nc1ccc2[nH]c3ccccc3c2c1,3.08%
2,COc1cc(Cl)ccc1OCc1cc(C(=O)NC2CCc3ccccc32)no1 (stereo not shown),8.95%
3,CS(=O)(=O)N(CC(=O)NCCSC1CCCCC1)c1cccc(F)c1,17.6%
4,O=c1c2ccccc2nc2n1CCC2,9.08%
5,Cc1onc(-c2ccccc2)c1C(=O)c1ccccc1,12.2%
6,O=S1(=O)CCOCCCN1Cc1cccc(F)c1,11%
7,Cc1ccc(-c2nnc(-c3ccccc3)o2)cc1Br,7.85%
8,CCn1c(C)nc2c(C)[n+](CC(=O)c3ccc(Br)cc3)ccc21.[Br-],8.09%
9,CC1CCCN(S(=O)(=O)c2ccc(C(=O)Nc3sc4c(c3C(N)=O)CCN(C)C4)cc2)C1 (stereo not shown),11.5%
10,Cc1cc(C)c(NC(=O)CNC(=O)c2ccccc2SCC(=O)N2CCCC2)c(C)c1,12.2%
11,Cc1ccc(OCCN2CCN(C(=O)CCC(=O)Nc3nnc(C(C)C)s3)CC2)cc1,9.33%
12,CCN(C(=O)c1ccco1)c1nnc(-c2cccnc2)s1,13.4%
13,Cc1c(C(=O)Nc2ccccc2)c2cc(O)ccc2n1Cc1ccccc1,12.7%
14,COc1ccc(Cl)cc1NC(=O)[C@@]1(CC(=O)O)CC(/C=C/c2ccccc2)=NO1,12.8%
15,CC1=Nc2ccccc2/C1=C/c1c(O)[nH]c(=O)[nH]c1=O,12.5%
16,O=C(CCNC(=O)c1ccco1)Nc1ccccc1OC(F)F,14.4%
17,CC(=O)Oc1ccccc1C(=O)Nc1ccccc1C(=O)N1CCCCC1,-2.56%
18,Oc1ccc2oc3c(c2c1)CCCC3,4.95%
19,CC(C)C(NC(=O)c1ccc(C(C)(C)C)cc1)C(=O)Nc1ccc(N2CCOCC2)cc1 (stereo not shown),-1.41%
20,Cc1ccc(S(=O)(=O)N2CCN(C(=O)[C@H](Cc3ccccc3)NC(=O)c3ccco3)CC2)cc1C,1.89%
21,O=C(C[n+]1cc(-c2ccc(Cl)c(Cl)c2)n2c1CCC2)OCc1ccccc1.[Br-],-2.26%
22,CC(=O)N(Cc1cc2c(C)cc(C)cc2[nH]c1=O)C1CCCCC1,15.3%

row,SMILES,"hERG current change (%, negative = inhibition) at 1uM"
1,CC(C(=O)Nc1ccccc1-c1ccccc1)N1CCN(Cc2ccccc2)CC1 (stereo not shown),-35.6%
2,Cc1onc(-c2ccccc2)c1C(=O)Nc1ccc(-c2nnc3n2CCCCC3)cc1,13%
3,CC(=O)Nc1ccc(S(=O)(=O)Nc2nc3ccccc3nc2-n2ccc(=NC(=O)c3ccc(F)cc3)cc2)cc1,8.97%
4,O=C(c1ccncc1)N1CCN(S(=O)(=O)c2cccc([N+](=O)[O-])c2)CC1,2.85%
5,O=C(CNC(=O)C1CCCCC1)NCc1ccco1,15%
6,CCC(=NCc1cc(OC)cc(OC)c1)c1c(O)[nH]c(=O)[nH]c1=O,5.35%
7,O=C(COC(=O)c1ccc([N+](=O)[O-])cc1)NC1CCCC1,14.4%
8,O=C(NCC1CCN(C(=O)c2ccc([N+](=O)[O-])cc2)CC1)C(=O)Nc1ccccc1,5.27%
9,CCOc1ccc(/C=N/Nc2nncc(-c3ccccc3)n2)cc1OC,3.8%
10,Cl.OC1(CNCc2ccccc2)C2CC3CC(C2)CC1C3 (stereo not shown),12.8%
11,O=C(OC(C(=O)Nc1cccc(C(F)(F)F)c1)c1ccccc1)C1CCCCC1 (stereo not shown),12.2%
12,O=C(NCc1ccccc1)c1ccc(OC2CSC2)cc1,18%
13,CCOc1ccc(NC(=O)CCn2c(=O)[nH]c3ccsc3c2=O)cc1,15.8%
14,CCC1(CC)Cc2ccccc2C(Nc2c(C)n(C)n(-c3ccccc3)c2=O)=N1,0.931%
15,Cn1c(N)c(C(=O)COC(=O)C2(c3ccc(Cl)cc3)CCCC2)c(=O)n(C)c1=O,10.5%
16,Cc1ccc2nc(NCc3ccccc3)c(C#N)cc2c1,-1.55%
17,CCC(=O)c1ccc(N2CCN(C(=O)c3cc([N+](=O)[O-])ccc3F)CC2)c(F)c1,-4.67%
18,COc1ccc(Cc2nnc(SC)[nH]c2=O)cc1OC,7.11%
19,O=c1[nH]c2ccc([N+](=O)[O-])cc2nc1/C=C(\O)c1ccccc1,10.5%
20,CCOC(=O)c1cc(S(=O)(=O)NC2CCN(C(=O)OCC)CC2)cn1C,-4%
21,CCCNC(=O)NC(=O)CSc1cccc(C(F)(F)F)c1,14.7%
22,COc1ccc(-n2nc(C(=O)NCC(=O)N3CCN(c4ccccn4)CC3)c3ccccc3c2=O)cc1Cl,14.4%
